In all, about 310,000 compounds went through this assay and about 14,000 (4.5%) showed an effect of 50% or more. Effects have a minus sign here. This is one part of the list.
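Note: peak tail current of the secondary pulse compared with the same well before compound.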

For this assay, the target named is human ether-à-go-go-related gene (hERG) potassium channel (human, UniProt Q12809). Briefly: primary screen, population patch clamp on CHO cells stably expressing hERG.
Chain of human ether-à-go-go-related gene (hERG) potassium channel (Q12809 whole entry, looked up): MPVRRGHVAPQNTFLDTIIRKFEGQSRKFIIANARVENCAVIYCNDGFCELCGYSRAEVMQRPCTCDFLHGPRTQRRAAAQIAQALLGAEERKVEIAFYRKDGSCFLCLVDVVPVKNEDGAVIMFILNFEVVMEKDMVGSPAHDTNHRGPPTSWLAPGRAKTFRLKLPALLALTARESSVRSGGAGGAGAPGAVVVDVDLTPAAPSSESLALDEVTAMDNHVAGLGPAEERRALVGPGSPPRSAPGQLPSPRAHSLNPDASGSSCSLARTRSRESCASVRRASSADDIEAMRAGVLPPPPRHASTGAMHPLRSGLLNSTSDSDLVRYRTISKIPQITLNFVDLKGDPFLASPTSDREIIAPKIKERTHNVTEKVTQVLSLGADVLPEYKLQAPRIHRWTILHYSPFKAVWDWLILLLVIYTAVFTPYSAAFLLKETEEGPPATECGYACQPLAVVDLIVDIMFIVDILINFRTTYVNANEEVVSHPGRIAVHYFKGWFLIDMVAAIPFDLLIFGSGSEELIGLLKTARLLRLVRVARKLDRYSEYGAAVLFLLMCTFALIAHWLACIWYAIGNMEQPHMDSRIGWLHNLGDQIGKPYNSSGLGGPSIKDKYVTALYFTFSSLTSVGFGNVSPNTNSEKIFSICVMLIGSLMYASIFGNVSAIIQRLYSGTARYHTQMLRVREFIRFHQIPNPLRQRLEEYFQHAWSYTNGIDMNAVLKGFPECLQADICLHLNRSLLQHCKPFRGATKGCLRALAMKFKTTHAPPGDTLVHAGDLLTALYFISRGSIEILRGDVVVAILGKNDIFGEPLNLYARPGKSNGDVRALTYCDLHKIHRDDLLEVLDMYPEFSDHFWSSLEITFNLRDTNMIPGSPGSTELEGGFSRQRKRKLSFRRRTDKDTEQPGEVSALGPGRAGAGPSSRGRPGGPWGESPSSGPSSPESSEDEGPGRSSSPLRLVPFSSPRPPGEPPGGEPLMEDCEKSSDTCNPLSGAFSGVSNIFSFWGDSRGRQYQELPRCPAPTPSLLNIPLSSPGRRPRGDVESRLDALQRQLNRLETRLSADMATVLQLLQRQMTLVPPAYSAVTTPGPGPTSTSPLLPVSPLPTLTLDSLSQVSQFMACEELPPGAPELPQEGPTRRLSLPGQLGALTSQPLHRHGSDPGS
In the case of `COCCn1cc(C(=O)c2ccccc2OCC(=O)Nc2cc(C)on2)cc(C#N)c1=O`, the “hERG current change (%, negative = inhibition) at 10uM” value was 10.3%.

As for `Cc1ccc(C(=O)N/C(=C\c2ccc(F)cc2)C(=O)NCc2ccncc2)cc1`, the “hERG current change (%, negative = inhibition) at 10uM” value is -75.9%.

With `C=CCn1c(SCC(=O)NCC(c2ccccc2)N(C)C)nnc1C1CCCCC1` (centres unmarked), the “hERG current change (%, negative = inhibition) at 10uM” value amounted to 8.62%.

As to `COc1ccc(-c2csc(N3CCOCC3)n2)cc1OC`, the “hERG current change (%, negative = inhibition) at 10uM” value was -5.19%.

Regarding `O=C(Nc1cccc(C(=O)O)c1)/C(=C\c1ccccc1Cl)NC(=O)c1ccco1`, the “hERG current change (%, negative = inhibition) at 10uM” value is 6.89%.

On to `CSCCNC(=O)c1ccc(C(C)(C)C)cc1`, for which the “hERG current change (%, negative = inhibition) at 10uM” value was -2%.

Take `O=C(Nc1ccc2c(c1)CCC2)c1ccc(Br)o1`: the “hERG current change (%, negative = inhibition) at 10uM” value is -17.2%.

Consider `CCc1ccccc1NC(=O)CCCN1C(=O)C2CC=CCC2C1=O` (centres unmarked), for which the “hERG current change (%, negative = inhibition) at 10uM” value came to 12%.

Turning to `Cc1ccc(F)cc1NC(=O)N1CCN(c2ccnc3cc(Cl)ccc23)CC1`, the “hERG current change (%, negative = inhibition) at 10uM” value is listed as -67%.

Regarding `O=C(COC(=O)/C=C/c1ccccc1)NC1CC1`, the “hERG current change (%, negative = inhibition) at 10uM” value was -5.83%.

On to `Cc1cccc(-c2noc(-c3ccc(F)cc3)n2)c1`, for which the “hERG current change (%, negative = inhibition) at 10uM” value came to 15.1%.

For the compound `COc1ccc(N2CCN(Cc3cc(=O)oc4cc(C)c(Cl)cc34)CC2)cc1`, the “hERG current change (%, negative = inhibition) at 10uM” value turned out to be 8.44%.

Turning to `O=C(c1ccc2c(c1)N(Cc1ccc(F)cc1)CCS2)N1CCC2(CC1)OCCO2`, the “hERG current change (%, negative = inhibition) at 10uM” value is reported as -57.1%.

`CC(=O)N/N=C\c1cccc(OC/C=C/c2ccccc2)c1`: the “hERG current change (%, negative = inhibition) at 10uM” value was 5.97%.

As for `COc1ccc(-c2cnc[nH]2)cc1`, the “hERG current change (%, negative = inhibition) at 10uM” value is 21.3%.

Take `COc1ccc(N(Cc2cc3ccccc3[nH]c2=O)S(C)(=O)=O)cc1`: the “hERG current change (%, negative = inhibition) at 10uM” value worked out at 1.34%.

For the compound `Cc1c(C)c2c(OCC(=O)N[C@@H](C(=O)O)c3ccccc3)cc3c(c2oc1=O)CCC(C)(C)O3`, the “hERG current change (%, negative = inhibition) at 10uM” value is on record as 11.9%.

As for `O=C(CSc1nc(C2CC2)nc2ccccc12)Nc1cccc(O)c1`, the “hERG current change (%, negative = inhibition) at 10uM” value is on record as 6.6%.

Take `COc1ccccc1OC1=NS(=O)(=O)c2ccccc21`: the “hERG current change (%, negative = inhibition) at 10uM” value is given as -1.69%.

For the compound `COC(=O)C1=C(O)/C(=C\c2ccc(CNC(=O)C(=O)Nc3ccc(C)c(C)c3)o2)N=C1C`, the “hERG current change (%, negative = inhibition) at 10uM” value is -17.8%.

With `COc1ccc(S(=O)(=O)NC2CC(=O)N(c3ccc4c(c3)OCCO4)C2)cc1` (centres unmarked), the “hERG current change (%, negative = inhibition) at 10uM” value was found to be 1.11%.

For `Cc1ccccc1NC(=O)CCNS(=O)(=O)c1cccc2nsnc12`, the “hERG current change (%, negative = inhibition) at 10uM” value turned out to be 5.97%.

Take `Cn1nc(-c2ccccc2)c(/C=N/O)c1Cl`: the “hERG current change (%, negative = inhibition) at 10uM” value came out at 12%.

On to `Cc1ccc(-c2cc(C(F)(F)F)c(C#N)c(=O)[nH]2)cc1`, for which the “hERG current change (%, negative = inhibition) at 10uM” value is given as -3.06%.

As to `CN(CC(=O)Nc1cccc(F)c1)C(=O)CCCc1cccs1`, the “hERG current change (%, negative = inhibition) at 10uM” value is -7.24%.

For `CCOC(=O)C1=C(O)/C(=C/c2cccc(OC)c2O)N=C1C`, the “hERG current change (%, negative = inhibition) at 10uM” value was found to be 8.18%.

Turning to `Cc1ccc(N/N=C(\C#N)C(=N)N2CCCCC2)cc1`, the “hERG current change (%, negative = inhibition) at 10uM” value is on record as -47.7%.

With `NC(N)=NC(N)=Nc1ccccc1`, the “hERG current change (%, negative = inhibition) at 10uM” value is recorded as 15.4%.

`O=C(Nc1cnccn1)C1c2ccccc2Oc2ccccc21`: the “hERG current change (%, negative = inhibition) at 10uM” value is given as -5.02%.

Take `O=C(NCc1ccco1)C(=O)c1cn(CC(=O)N2CCCC2)c2ccccc12`: the “hERG current change (%, negative = inhibition) at 10uM” value is recorded as -21.4%.

With `O=C1CCCc2c1nc(-c1ccc(F)cc1)n2O`, the “hERG current change (%, negative = inhibition) at 10uM” value was 12%.

Take `COc1ccc(C)cc1NC(=O)CSc1ccc(-c2ccccn2)nn1`: the “hERG current change (%, negative = inhibition) at 10uM” value came out at 8.2%.

As for `Cc1ccc(N2C(=O)SC(N(CC(=O)O)c3cccc(C)c3)C2=O)cc1` (centres unmarked), the “hERG current change (%, negative = inhibition) at 10uM” value is on record as -0.0799%.

For `O=C(O)c1cccc(S(=O)(=O)N(Cc2ccccc2)c2ccc(Cl)cc2)c1`, the “hERG current change (%, negative = inhibition) at 10uM” value is given as 14%.

For the compound `CCCNCc1cc(Cl)c(OCC)c(Cl)c1.Cl`, the “hERG current change (%, negative = inhibition) at 10uM” value is on record as 13.8%.

For the compound `O=C(NCCCN1CCN(Cc2ccccc2Cl)CC1)Nc1ccccc1`, the “hERG current change (%, negative = inhibition) at 10uM” value was -56.8%.

As for `COc1ccc(-c2cn(Cc3cccc(OC)c3)nn2)cc1`, the “hERG current change (%, negative = inhibition) at 10uM” value is reported as -0.524%.

`Cc1cccc(C(=O)NNC(=O)C(=O)NC(C)(C)C)c1`: the “hERG current change (%, negative = inhibition) at 10uM” value came out at 2.04%.

Turning to `CCCNc1nc(Nc2ccc(C)c(Cl)c2)c2cnn(C)c2n1`, the “hERG current change (%, negative = inhibition) at 10uM” value worked out at 17.8%.

On to `O=C(CSc1nc2ccccc2s1)NNC(=O)Nc1ccc(Cl)c(Cl)c1`, for which the “hERG current change (%, negative = inhibition) at 10uM” value worked out at 7.58%.

On to `COc1cc(CCCN2CCNC[C@@H]2Cc2ccccc2)cc(OC)c1OC`, for which the “hERG current change (%, negative = inhibition) at 10uM” value worked out at 4.5%.

Take `Cc1c([N+](=O)[O-])cc(C(=O)Oc2ccc(Br)cc2C(=S)N2CCCCC2)cc1[N+](=O)[O-]`: the “hERG current change (%, negative = inhibition) at 10uM” value was determined as 34.7%.

In the case of `Cc1cccc(NC(=O)CCNS(=O)(=O)c2cccc3nsnc23)c1`, the “hERG current change (%, negative = inhibition) at 10uM” value worked out at 5.49%.

Take `NC1=NC[C@H](CC2CCCCC2)N1CCc1cc(C(F)(F)F)cc(C(F)(F)F)c1`: the “hERG current change (%, negative = inhibition) at 10uM” value is listed as -15.1%.

Values taken from paper PMC4336329 (PLoS ONE, 2015).
